Reference: the supplement of paper PMC3334620
Over roughly 33,000 sequences, “E-score (-0.5 to 0.5)” has its median near -0.016; the highest 2% begin near 0.31. Some of the results follow.

Target: Cst6 (UniProt P40535)
Assay: PBM E-score (8-mer binding enrichment) (E-score (-0.5 to 0.5)); higher = stronger / more preferred TF binding; most listed sequences are background and not binding sites
Settings: protein concentration: 200 nM; construct: GST-DNA-binding domain
Summary of the method: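 E-scores (a modified Wilcoxon-Mann-Whitney statistic) were assigned by the Universal PBM Analysis Suite to every ungapped eight-base word pooled with its reverse complement. The input came from universal all-10-mer Agilent arrays made double-stranded by primer extension and probed with GST-tagged yeast transcription factors at about 100-200 nM. Fluorescent anti-GST detected bound protein, and masliner normalised the scans.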

| Sequence | PBM E-score |
| --- | --- |
| CTACGAAC | 0.018 |
| CCGGCCCA | -0.328 |
| ATACAGAT | 0.102 |
| ACTAGTCA | -0.147 |
| CTCGCATA | 0.111 |
| AAGGGTTG | 0.0749 |
| ATTCAAAA | 0.231 |
| TGATGCCA | 0.281 |
| CGGTTGTA | -0.185 |
| CGGCGAAC | -0.0426 |
| CCGCATTA | 0.164 |
| ATACCCTC | -0.0615 |
| AGTTATGA | 0.181 |
| ATCGAGTA | -0.105 |
| CTTTGTGC | 0.165 |
| TCCACTCA | -0.0386 |
| GTGTGCGA | -0.135 |
| CGGTCGAC | -0.185 |
| GTTGAGGA | 0.104 |
| AAAATAAA | 0.274 |
| ATGTTCTC | -0.0109 |
| CTACTTTC | 0.0613 |
| AGCCGGGA | -0.0833 |
| ATGTCAGC | 0.225 |
| ACGGTTCT | -0.0103 |

| Sequence | PBM E-score |
| --- | --- |
| CGCGGCGA | 0.27 |
| AACGGACG | 0.00886 |
| AGAGTGAT | 0.00831 |
| CTTTAACA | 0.145 |
| GTTAATTA | 0.277 |
| ATGATCGC | 0.085 |
| CCCCTCTC | -0.433 |
| AGCGGGAA | 0.0619 |
| ATGACACA | 0.349 |
| CTTCCTCA | -0.149 |
| AATTGATA | 0.296 |
| AGATCCTG | -0.188 |
| CAGTACCA | -0.103 |
| GTTACGCA | 0.266 |
| CCGCATCA | 0.196 |
| CAGTGGAA | -0.0929 |
| CCTTAACC | -0.221 |
| AATTGACG | 0.259 |
| CGGATACA | 0.0638 |
| ACGATTAC | 0.262 |
| GATTAGGC | 0.0681 |
| CATGGCCA | -0.207 |
| CCAGAGCA | -0.146 |
| CTACAAGC | -0.0485 |
| GGTAGCGA | -0.227 |

| Sequence | PBM E-score |
| --- | --- |
| CTCGTTCC | -0.121 |
| ACAAAATG | 0.244 |
| ATACGCTG | -0.107 |
| TCCTATCA | -0.157 |
| ATTCTATA | 0.156 |
| CATGGGCG | 0.0638 |
| CTAAGGTC | -0.115 |
| GGACGAGA | -0.014 |
| GCCTGAGA | -0.179 |
| AAGAACTC | 0.0579 |
| ATGTCATG | 0.425 |
| GCAAGCAC | -0.278 |
| TATACACA | 0.0853 |
| CGAGACCA | -0.0838 |
| CGTCACAA | 0.4 |
| ATTCGTAA | 0.293 |
| ATCATGTA | 0.209 |
| GATACCGC | -0.0789 |
| CAGTTAGA | 0.0747 |
| AATATTTC | 0.27 |
| AGTTTGCG | -0.0314 |
| TAGGAGCA | -0.198 |
| CTGCCCTA | -0.202 |
| AAGAATGG | -0.116 |
| CGATCGTA | -0.0892 |

| Sequence | PBM E-score |
| --- | --- |
| GATGTCGA | 0.0813 |
| CTAAGCCC | -0.295 |
| CTACCTAG | -0.231 |
| AAGGTAAT | 0.129 |
| CGAGGGAC | -0.349 |
| AACTGGCG | 0.0737 |
| GCACGACA | -0.0194 |
| TCGAGAGA | -0.135 |
| ACGGAATC | 0.0733 |
| AAAAGTCG | -0.0593 |
| GTGATTAA | 0.269 |
| GATTCTAC | 0.0813 |
| CAATCTCA | -0.0515 |
| AAACCAGT | -0.0635 |
| CGGCCGCA | 0.0199 |
| AACTCCAT | -0.0241 |
| GCGGTTCC | -0.104 |
| AAACGCGT | 0.0447 |
| GCAGCCAC | -0.203 |
| ATACTCCA | -0.0155 |
| CCCGGTTA | -0.198 |
| ACCCTGTG | -0.0662 |
| CGAACTCA | -0.164 |
| AGTTTGAG | 0.0309 |
| AGTATGAA | 0.0821 |

| Sequence | PBM E-score |
| --- | --- |
| AGACTGCC | 0.0708 |
| CACCACCG | -0.255 |
| ACTAAGCT | 0.0716 |
| AGAAGCGG | -0.107 |
| CCGTGGGC | -0.116 |
| AGCCAGTC | -0.244 |
| ATGACGAA | 0.472 |
| CTACCAGC | -0.186 |
| ACTCGGAC | -0.156 |
| CAGAGGGC | -0.181 |
| ACTACAGG | -0.0765 |
| CGGCACCG | 0.181 |
| AATGCCGC | 0.284 |
| CACGACTC | -0.0976 |
| GAACAACC | 0.0203 |
| CAATGCTC | 0.0473 |
| ATTGTAAG | -0.0822 |
| CAAACTTG | -0.0352 |
| CATAGTAG | -0.0432 |
| CTATGAGC | -0.0336 |
| AAGTCCCC | -0.336 |
| AACCCGGG | -0.199 |
| GAGGGTGA | 0.00352 |
| TAGCTAGA | 0.0187 |
| AAGTACGG | 0.00603 |

| Sequence | PBM E-score |
| --- | --- |
| ATGAGGCA | 0.118 |
| GACGTTGC | 0.187 |
| ATATCATA | 0.315 |
| ATATGCGC | 0.0289 |
| AGGTACCC | -0.362 |
| CTTATAGC | -0.00966 |
| CATCCAAC | 0.157 |
| GCAGTCGC | -0.0904 |
| ATAGGGGA | -0.247 |
| GGCCGTGA | 0.14 |
| CCACCGAC | -0.163 |
| AAAGAGAT | -0.00327 |
| TACAGATA | 0.138 |
| AATCCTGC | 0.144 |
| ACAACGGT | -0.136 |
| ACACGGTA | 0.0637 |
| AAACGATG | 0.194 |
| TAGCTGCA | -0.201 |
| ATATGGGC | -0.00349 |
| TACACCGA | -0.18 |
| ATATGCCA | 0.118 |
| AACCCGGT | -0.276 |
| GAAAAGGC | -0.00087 |
| AACACATA | 0.251 |
| GTGCCTGA | -0.208 |

| Sequence | PBM E-score |
| --- | --- |
| TCAACAAA | 0.168 |
| ACGCGCAC | 0.0413 |
| GAAGAGCA | -0.0791 |
| CAAGAGCA | -0.183 |
| ATCCACCA | -0.011 |
| CCACGCAA | 0.043 |
| CTTGCTTA | -0.166 |
| GAAGCTCA | -0.121 |
| CGCCTCCC | -0.0931 |
| AGGCAGCC | -0.155 |
| AAAACGGG | 0.147 |
| AATTGGGG | -0.155 |
| GCTCAGAC | -0.091 |
| AACCCGTT | -0.124 |
| ACTCGAGT | 0.135 |
| CACCCAGC | -0.131 |
| AGAATGAA | 0.207 |
| TAGTTGGA | -0.0265 |
| TCGGCTAA | -0.0455 |
| AGACGGTA | -0.115 |
| CCAGTTAC | -0.132 |
| ATCCCAGG | -0.234 |
